The values that follow come from the supplement of paper PMC6746778.

Test systems include Bt20; Bt549; HCC1143; HCC1806; HCC1937; HCC38; HCC70; Hs578T; MDA-MB-231; MDA-MB-435s; MDA-MB-436; MDA-MB-453; MDA-MB-468; SKBR7; SUM1315MO2; SUM149PT; SUM159PT; SUM185PE; SUM229PE; SUM52PE.
Experiment in all cases: proliferation Z-score within cell line (SRB, relative to all inhibitors screened on that line); triple-negative breast cancer lines and a kinase inhibitor library; SRB is the sulforhodamine B protein stain; higher = less growth inhibition (more resistant)
Settings in all cases: concentration: 1 µM; 4 days

The other results are listed elsewhere or left out. Many values rest on one well or one pass, so single values are uncertain.
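Note: Single-dose primary screen of a 378-member kinase inhibitor library in 96-well plates, with growth read as absorbance of protein-bound SRB dye after TCA fixation.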

For the molecule `FC(F)(F)c1ccc(/C=C/c2nc(COc3ccc(CCCCn4ccnn4)cc3)co2)cc1` [Mubritinib (TAK 165)], the “proliferation Z-score within cell line” value with Bt20 is -1.63; in the test on Bt549, -2.89; with HCC1143, -0.302; with HCC1806, -1.22; in the test with HCC1937 it was -0.979; with HCC38, -3.29. The “proliferation Z-score within cell line” value with HCC70 was -0.512; in the test on Hs578T it was -1.62; with MDA-MB-231, -1.28; in the test with MDA-MB-435s, -0.931; in the test on MDA-MB-436 it was -0.413; with MDA-MB-453 it was -1.58. Further, the “proliferation Z-score within cell line” value with MDA-MB-468 was -1.02; with SKBR7, -2.16; in the test on SUM1315MO2, 0.097; in the test with SUM149PT, -0.829; with SUM159PT, -1.27; in the test with SUM185PE, -0.848. The “proliferation Z-score within cell line” value in the test with SUM229PE was -2.16; in the test on SUM52PE, -0.611.
Consider `COC(=O)c1ccc2c(C(=Nc3ccc(N(C)C(=O)CN4CCN(C)CC4)cc3)c3ccccc3)c(O)[nH]c2c1` [Nintedanib (BIBF 1120)], for which the “proliferation Z-score within cell line” value in the test with Bt20 is 0.7; with Bt549, 0.517; in the test with HCC1143 it was 0.454; with HCC1806, 0.554; in the test on HCC1937, 0.456; in the test with HCC38 it was 0.508. For the same molecule, the “proliferation Z-score within cell line” value in the test with HCC70 came to 0.542; with Hs578T, 0.399; in the test on MDA-MB-231, 0.729; with MDA-MB-435s, 0.748; with MDA-MB-436, 0.422; in the test on MDA-MB-453, 0.852. The “proliferation Z-score within cell line” value in the test on MDA-MB-468 was 0.638; with SKBR7, 0.922; in the test on SUM1315MO2, -0.255; with SUM149PT it was 0.717; with SUM159PT, 0.415; in the test on SUM185PE it was -0.792. Further, the “proliferation Z-score within cell line” value in the test on SUM229PE is 0.482; with SUM52PE, -0.00993.
`Cc1ccc(S(=O)(=O)C=CC#N)cc1`: the “proliferation Z-score within cell line” value in the test with Bt20 worked out at 0.54; in the test with Bt549, 0.664; in the test with HCC1143, 0.493; with HCC1806 it was 0.845; with HCC1937, 0.533; in the test on HCC38 it was 0.541. Also, the “proliferation Z-score within cell line” value worked out at 0.451 with HCC70; 0.561 in the test on Hs578T; 0.592 with MDA-MB-231; 0.683 in the test on MDA-MB-435s; 0.442 in the test on MDA-MB-436; 0.885 with MDA-MB-453. The “proliferation Z-score within cell line” value stood at 0.823 with MDA-MB-468; 0.775 in the test with SKBR7; 0.834 in the test on SUM1315MO2; 0.574 in the test with SUM149PT; 0.389 in the test with SUM159PT; 0.435 in the test with SUM185PE. The figures for the “proliferation Z-score within cell line” value in the test on SUM229PE and in the test with SUM52PE were 0.565 and 0.745, respectively.
`CNC(=O)c1nn(C)c2c1C(C)(C)Cc1cnc(Nc3ccc(N4CCN(C)CC4)cc3)nc1-2`: the “proliferation Z-score within cell line” value is -0.0243 in the test with Bt20; -0.463 in the test with Bt549; -1.05 in the test on HCC1143; -0.515 in the test with HCC1806; -0.466 in the test with HCC1937; -0.216 with HCC38. Besides, the “proliferation Z-score within cell line” value is 0.322 with HCC70; -0.0221 in the test on Hs578T; -1.25 in the test on MDA-MB-231; -0.923 in the test on MDA-MB-435s; -1.03 with MDA-MB-436; -0.725 with MDA-MB-453. Moreover, the “proliferation Z-score within cell line” value in the test with MDA-MB-468 is -0.411; in the test with SKBR7 it was -0.907; in the test on SUM1315MO2 it was -0.699; in the test with SUM149PT, -1.29; in the test on SUM159PT, -0.339; in the test on SUM185PE, 0.119. In addition, the “proliferation Z-score within cell line” value was -0.374 in the test on SUM229PE and -0.445 in the test on SUM52PE.
In the case of `CN(C)CCCn1cc(C2=C(c3c[nH]c4ccccc34)C(=O)NC2=O)c2ccccc21`, the “proliferation Z-score within cell line” value in the test on Bt20 came to 0.513; with Bt549 it was 0.592; in the test on HCC1143 it was 0.567; with HCC1806 it was 0.377; in the test with HCC1937, 0.64; with HCC38, 0.424. Also, the “proliferation Z-score within cell line” value turned out to be 0.364 in the test with HCC70; 0.633 in the test on Hs578T; 0.823 in the test with MDA-MB-231; 0.491 in the test on MDA-MB-435s; 1.22 in the test with MDA-MB-436; 0.877 with MDA-MB-453. Moreover, the “proliferation Z-score within cell line” value turned out to be 0.509 in the test with MDA-MB-468; 1.66 in the test on SKBR7; 0.863 in the test with SUM1315MO2; 0.865 in the test with SUM149PT; 0.398 in the test on SUM159PT; 0.76 in the test on SUM185PE. In addition, the “proliferation Z-score within cell line” value with SUM229PE was -0.0743; in the test with SUM52PE it was 0.682.
For `CNC(=O)c1cc(COc2nnc(Nc3ccc(Cl)cc3)c3ccoc23)ccn1` [Telatinib], the “proliferation Z-score within cell line” value is -0.267 in the test on Bt20; 0.494 in the test with Bt549; 0.399 in the test on HCC1143; 0.422 with HCC1806; 0.663 with HCC1937; 0.328 in the test on HCC38. Further, the “proliferation Z-score within cell line” value in the test with HCC70 is 0.311; with Hs578T, 0.449; in the test with MDA-MB-231, 0.967; in the test on MDA-MB-435s it was 0.578; in the test with MDA-MB-436, 0.131; in the test on MDA-MB-453 it was 0.482. Moreover, the “proliferation Z-score within cell line” value in the test with MDA-MB-468 is 0.83; in the test with SKBR7, 0.0144; in the test with SUM1315MO2, 0.317; in the test on SUM149PT it was 0.373; in the test with SUM159PT, 0.13; in the test on SUM185PE it was -0.0366. Besides, the “proliferation Z-score within cell line” value in the test on SUM229PE came out at 0.279; in the test with SUM52PE, 0.357.
Take `CNc1nc(Nc2cnn(C3CCN(C4COC4)CC3F)c2Cl)ncc1C(F)(F)F` (stereo not given): the “proliferation Z-score within cell line” value with Bt20 is 0.558; with Bt549 it was 0.636; in the test with HCC1143, 0.518; in the test with HCC1806 it was 0.511; with HCC1937 it was 0.288; in the test on HCC38, 0.431. Also, the “proliferation Z-score within cell line” value in the test on HCC70 worked out at 0.508; in the test on Hs578T, 0.498; with MDA-MB-231, 0.704; in the test on MDA-MB-435s, 0.644; in the test with MDA-MB-436, 0.931; in the test with MDA-MB-453, 0.819. Also, the “proliferation Z-score within cell line” value in the test on MDA-MB-468 came to 0.455; with SKBR7, 1.07; in the test on SUM1315MO2 it was 0.158; with SUM149PT, 0.555; in the test on SUM159PT, 0.306; with SUM185PE, 0.0037. Besides, the “proliferation Z-score within cell line” value with SUM229PE was determined as 0.337; in the test with SUM52PE, 0.547.
